{"source": "PubChem BioAssay (Tox21)", "note": "Where “and” joins values, the source holds several entries; their conditions need not be identical. Equal values may be shown once. The inconclusive results got no clear call from the source; some entries with a clear call stand among them for comparison. Where the call is inconclusive, the potency comes from a doubtful curve fit. Calls of active or inactive are those of the source. Calls come from the whole dose curve; as a rule, active = well fitted curve in the direction sought with a large enough effect in the repeat runs; inconclusive = weak or mixed curves; inactive = no such curve, though single readings can be large; an effect the other way counts as inactive or inconclusive. Potency is the fitted concentration of half-maximal effect; tags give direction and shape of the fitted curve."}
{"system": "not listed separately", "test": "Caspase-3/7 induction in HepG2 cells by small molecules, qHTS cell viability counter screen (AID 1346981); note: nearly all actives have a fitted effect of over 30% in size; for activity change, negative = cytotoxicity: % is set by controls: 0 for no effect and ±100 for the full control effect", "details": "CellTiter-Fluor fluorescence, 17 h; series mostly up to 92.4 µM; activity change, negative = cytotoxicity: at the top concentration", "outline": "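In this quantitative HTS counter screen, compounds delivered in DMSO were left on unmodified HepG2 cells for 16 hr at 37 C. Viability was then determined fluorometrically with CellTiter-Fluor, in parallel with caspase-3/7 induction in the same wells.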"}
{"smiles": "O=P(OC(CCl)CCl)(OC(CCl)CCl)OC(CCl)CCl", "Potency": "inconclusive: 68.6 µM [cytotoxic, single point]"}
{"smiles": "CCn1ccnc1CC1COc2ccccc2O1", "note": "(stereo unspecified)", "activity change, negative = cytotoxicity": "inactive: 9.29% [at 42.5 µM]"}
{"smiles": "Cc1ccc(C2OC[C@@H]3OC(c4ccc(C)cc4)O[C@H]([C@H](O)CO)[C@@H]3O2)cc1", "note": "(stereo partly specified)", "activity change, negative = cytotoxicity": "inactive: 6.41%"}
{"smiles": "Cc1cc(NC(=O)C(=O)O)cc(C)c1Oc1ccc(O)c2c1CCC2", "activity change, negative = cytotoxicity": "inactive: 2.66%"}
{"smiles": "O=C(NCCO[N+](=O)[O-])c1cccnc1", "activity change, negative = cytotoxicity": "inactive: 5.56% [at 42.5 µM]"}
{"smiles": "CCC(=O)c1ccc(O)cc1", "Potency": "inconclusive: 23.7 µM [rising, partial curve, poor fit]"}
{"smiles": "N#C[C@@H]1CC(F)(F)CN1C(=O)CNC1CC2CCC(C1)N2c1ncccn1", "note": "(stereo partly specified)", "activity change, negative = cytotoxicity": "inactive: -0.947%"}
{"smiles": "CCC(C)(C)C1CCC(O)CC1", "note": "(stereo unspecified)", "activity change, negative = cytotoxicity": "inactive: 5.15%"}
{"smiles": "CCCCOC(=O)COc1ccc(Cl)cc1Cl", "Potency": "inactive"}
{"molecular_target": "Nuclear receptor subfamily 1 group I member 2 (Homo sapiens) (UniProt O75469)", "test": "Human pregnane X receptor (PXR) small molecule agonists, qHTS assay (AID 1346982); note: nearly all actives have a fitted effect of over 35% in size; for activation: % is set by controls: 0 for no effect and ±100 for the full control effect", "details": "PXR-Luc HepG2, CYP3A4 luciferase reporter, 24 h; series mostly up to 92.4 µM; activation: at the top concentration", "outline": "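Reporter HepG2 cells expressing PXR-Luc are cultured in charcoal-stripped FBS (5%), treated with compounds for 24 hr at 37 C, and assayed by ONE-Glo luminescence after 30 min at room temperature.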"}
{"smiles": "CCCCCCCCCCOS(=O)(=O)O", "Potency": "inconclusive: 54.3 µM [activator, partial curve, poor fit]"}
{"smiles": "Cc1cc(O)c2c(c1)C(=O)c1cccc(O)c1C2=O", "Potency": "inconclusive: 33.6 µM [activator]"}
{"smiles": "NCC1CCC(C(=O)Oc2ccc(CCC(=O)O)cc2)CC1", "note": "(stereo unspecified)", "activation": "inactive: -4.02% [at 42.5 µM]"}
{"smiles": "CC(C)CC(=O)O", "Potency": "inconclusive: 59.8 µM [activator, partial curve]"}
{"smiles": "Cc1ccc(S)cc1", "activation": "inactive: 11.7%"}
{"smiles": "Nc1c(Br)cc([N+](=O)[O-])cc1Br", "Potency": "inconclusive: 27.3 µM [activator, partial curve, poor fit]"}
{"smiles": "COC(=O)/C=C\\C(=O)OC", "Potency": "inactive"}
{"smiles": "O=C1CCCC1", "Potency": "inconclusive: 5.53 µM [activator, full curve, poor fit]"}
{"smiles": "CCOC(=O)/C=C/C(=O)O", "activation": "inactive: -1.04%"}
{"smiles": "Cc1cccc(C)c1[N+](=O)[O-]", "Potency": "inconclusive: 54.5 µM [activator, partial curve, poor fit]"}
{"smiles": "O=C(c1ccc(Cl)cc1)c1ccc(Cl)cc1", "Potency": "inconclusive: 21.7 µM [activator, partial curve, poor fit]"}
{"smiles": "CC1CCC(CO)CC1", "note": "(stereo unspecified)", "activation": "inactive: 4.4%"}
{"smiles": "C/C(=C\\c1ccc(C(=O)O)cc1)c1ccc2c(c1)C(C)(C)CCC2(C)C", "activation": "inactive: 5.13% [at 42.5 µM]"}
{"smiles": "CCOC(=O)c1cnc2c(cnn2CC)c1NN=C(C)C", "Potency": "inconclusive: 23.7 µM [activator, partial curve]"}
{"smiles": "CC(C)(C)c1ccc(OC(=O)c2ccccc2O)cc1", "Potency": "inconclusive: 68.6 µM [activator, partial curve, poor fit]"}
{"smiles": "CCN(CC)CCOC(=O)C1(c2ccccc2)CCCC1", "Potency": "inconclusive: 13.3 µM [activator, partial curve]"}
{"smiles": "COc1cc(C(C)C)ccc1C", "activation": "inactive: -14.1% [at 19 µM]"}
{"smiles": "CC(C)(O)c1ccc(C(C)(C)O)cc1", "activation": "inactive: 2.68%"}
{"smiles": "COc1c(N2CCNC(C)C2)c(F)cc2c(=O)c(C(=O)O)cn(C3CC3)c12", "note": "(stereo unspecified)", "activation": "inactive: -15.7% [at 42.5 µM]"}
{"smiles": "CCS(=O)(=O)c1ccc(OC)c(C(=O)OC)c1", "activation": "inactive: 3% [at 42.5 µM]"}
{"smiles": "NC(Cc1c[nH]c2ccccc12)C(=O)O", "note": "(stereo unspecified)", "activation": "inactive: -2.87% [at 42.5 µM]"}
{"smiles": "CC(C#N)(CCC(=O)O)N=NC(C)(C#N)CCC(=O)O", "note": "(stereo unspecified)", "Potency": "inconclusive: 48.6 µM [activator, partial curve]"}
{"smiles": "COc1cc(N)ccc1C", "Potency": "inconclusive: 34 µM [activator, partial curve]"}
{"smiles": "COc1cc2nc(N3CCN(C(=O)C4CCCO4)CC3)nc(N)c2cc1OC", "note": "(stereo unspecified)", "Potency": "inconclusive: 33.5 µM [activator, single point]"}
{"smiles": "Cl/C(=C\\n1cncn1)c1ccc(Cl)cc1Cl", "Potency": "inconclusive: 33.5 µM [activator, single point]"}
{"smiles": "N[C@@H](Cc1c[nH]c2ccc(O)cc12)C(=O)O", "Potency": "inconclusive: 66.6 µM [activator, partial curve, poor fit]"}
{"smiles": "O=C1CCN(c2ccccc2)N1", "Potency": "inconclusive: 54.6 µM [activator, partial curve, poor fit]"}
{"smiles": "Oc1cc(O)c(Cl)cc1Cl", "activation": "inactive: 8.97%"}
{"smiles": "COCCC(=O)OC", "activation": "inactive: 6.57%"}
{"smiles": "NC(=O)C1(N2CCCCC2)CCN(CCCC(=O)c2ccc(F)cc2)CC1", "activation": "inactive: -6.92% [at 42.5 µM]"}
{"molecular_target": "Nuclear receptor subfamily 1 group I member 2 (Homo sapiens) (UniProt O75469)", "test": "CYP3A4 induction through human pregnane X receptor (PXR) by small molecules, qHTS assay (AID 1346984); note: nearly all actives have a fitted effect of over 40% in size", "details": "DPX-2 HepG2 PXR, CYP3A4-luciferin luminescence, 24 h; series mostly up to 46.1 µM; activation: at the top concentration", "outline": "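Induction measured in HepG2-based DPX-2 cells co-expressing human PXR and a CYP3A4 promoter-driven luciferase. After a 24-hour compound exposure, cells received CYP3A4 luciferin substrate at 3uM final for 3 hours, and light output was then recorded.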"}
{"smiles": "Cl/C(=C\\n1cncn1)c1ccc(Cl)cc1Cl", "Potency": "active: 22.4 µM"}
{"smiles": "N[C@@H](Cc1c[nH]c2ccc(O)cc12)C(=O)O", "Potency": "active: 4.47 µM"}
{"smiles": "NC(=O)C1(N2CCCCC2)CCN(CCCC(=O)c2ccc(F)cc2)CC1", "Potency": "inconclusive: 11.2 µM [activator, full curve, poor fit]"}
{"molecular_target": "Cytochrome P450 2D6 (Homo sapiens) (UniProt P10635)", "sequence (P10635 whole entry, looked up)": "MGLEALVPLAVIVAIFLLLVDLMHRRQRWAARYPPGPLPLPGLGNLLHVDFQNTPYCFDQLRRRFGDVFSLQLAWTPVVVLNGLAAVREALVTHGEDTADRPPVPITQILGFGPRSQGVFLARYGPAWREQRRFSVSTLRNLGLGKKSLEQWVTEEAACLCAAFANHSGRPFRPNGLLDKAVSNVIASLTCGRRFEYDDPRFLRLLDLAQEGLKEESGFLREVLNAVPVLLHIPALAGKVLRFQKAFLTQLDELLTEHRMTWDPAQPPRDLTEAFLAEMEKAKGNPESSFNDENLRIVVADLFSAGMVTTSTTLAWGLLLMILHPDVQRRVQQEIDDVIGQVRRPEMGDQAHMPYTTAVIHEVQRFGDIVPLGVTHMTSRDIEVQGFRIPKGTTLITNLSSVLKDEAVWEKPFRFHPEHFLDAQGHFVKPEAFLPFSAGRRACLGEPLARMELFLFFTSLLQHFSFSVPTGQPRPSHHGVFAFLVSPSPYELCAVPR", "test": "Cytochrome P450 Family 2 Subfamily D Member 6 (CYP2D6) small molecule antagonists: luciferase reporter qHTS assay (AID 1671196); note: nearly all actives have a fitted effect of over 50% in size; for activity change, negative = inhibition: % is set by controls: 0 for no effect and ±100 for the full control effect", "details": "P450-Glo CYP2D6 enzyme assay, luciferin luminescence, 1 h; series mostly up to 115 µM; activity change, negative = inhibition: at the top concentration", "outline": "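Test chemicals meet CYP2D6 plus proluciferin substrate (10 min, RT); NADPH regenerating solution then drives turnover for 1 h. Detection reagent halts the reaction; luminescence measured after 20 min.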"}
{"smiles": "CCCCCCCCCCOS(=O)(=O)O", "Potency": "inconclusive: 70.7 µM [inhibitor, partial curve, poor fit]"}
{"smiles": "CCOC(=O)/C=C/C(=O)O", "Potency": "inconclusive: 35.6 µM [inhibitor, partial curve]"}
{"smiles": "CCOC(=O)c1cnc2c(cnn2CC)c1NN=C(C)C", "Potency": "inconclusive: 34.7 µM [inhibitor, partial curve, poor fit]"}
{"smiles": "CC(C#N)(CCC(=O)O)N=NC(C)(C#N)CCC(=O)O", "note": "(stereo unspecified)", "activity change, negative = inhibition": "inactive: -23.8%"}
{"smiles": "COc1cc(N)ccc1C", "Potency": "active: 12.5 µM"}
{"smiles": "COc1cc2nc(N3CCN(C(=O)C4CCCO4)CC3)nc(N)c2cc1OC", "note": "(stereo unspecified)", "Potency": "inconclusive: 34.7 µM [inhibitor, partial curve]"}
{"smiles": "Cl/C(=C\\n1cncn1)c1ccc(Cl)cc1Cl", "Potency": "active: 15.5 µM"}
{"smiles": "N[C@@H](Cc1c[nH]c2ccc(O)cc12)C(=O)O", "Potency": "active: 34.6 µM and inconclusive: 17.4 µM [inhibitor, partial curve, poor fit]"}
{"smiles": "Oc1cc(O)c(Cl)cc1Cl", "Potency": "inconclusive: 72.8 µM [inhibitor, partial curve, poor fit]"}
